From patent US20220348661A1 (HARBOUR BIOMED SHANGHAI, published 2022)

Target: T1, human CD3 (human, UniProt P07766; P09693; P04234; P20963)
T1 construct: whole, on cells; SP34 is described as an anti-human CD3e antibody; also called human TCR/CD3 complex; CD3 on human pan-T cells
Experiment: flow cytometry on human pan-T cells, scFv-Fc; MFI at 7.4 or 10 µg/ml relative to PR000260
From the text: The flow cytometryFACS was used to analyse the binding of the CD3 antibody to CD3-expressing cells, where the CD3-expressing cells could be: CHOK1 cells overexpressing human CD3 or HEK 293 cells (plasmids encoding the ORF of γ, δ, ε, and ζ chains of human-derived CD3 and plasmids encoding the ORF of α and β chains of human TCR were co-transfected with host cells CHOK1 (ATCC, CCL-61) or HEK293 (ATCC, CRL-1573) to construct stable cell lines expressing the structure of the human TCR/CD3 complex); CHOK1 or HEK293 cells overexpressing cynomolgus monkey CD3; human pan-T cells (isolated with the human pan-T cell isolation kit (Miltenyi, #130-096-535) from PBMC); cynomolgus monkey pan-T cells. […] The fluorescent luminescence signal value were read by flow cytometry (BD FACS CANTOII or ACEA NovoCyte), and the resulted data were processed and analyzed by software FlowJo v10 (FlowJo, LLC). […]
FIGS. 8(A) and (B) show the binding capacity of the anti-CD3 scFv-Fc single chain antibody obtained in the Example 4.3 to human pan-T cells The fluorescence intensity MFI of the CD3 antibody binding to human pan-T cells and the relative ratio relative to the initial antibody PR000260 were calculated when the antibody concentration was 7.4 or 10 μg/ml.

T1 sequence (P07766 23-207, chain 1 of 4): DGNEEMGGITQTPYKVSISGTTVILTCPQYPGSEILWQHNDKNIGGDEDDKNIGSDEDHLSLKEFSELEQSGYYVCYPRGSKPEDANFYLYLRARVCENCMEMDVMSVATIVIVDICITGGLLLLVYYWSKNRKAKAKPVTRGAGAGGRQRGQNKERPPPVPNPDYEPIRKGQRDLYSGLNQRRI
T1 sequence (P09693 23-182, chain 2 of 4, further chain): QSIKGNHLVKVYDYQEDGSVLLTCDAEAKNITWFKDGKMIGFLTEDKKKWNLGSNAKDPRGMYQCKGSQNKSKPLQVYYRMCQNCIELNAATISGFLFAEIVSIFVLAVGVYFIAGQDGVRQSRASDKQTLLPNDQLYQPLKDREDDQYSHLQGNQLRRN
T1 sequence (P04234 22-171, chain 3 of 4, further chain): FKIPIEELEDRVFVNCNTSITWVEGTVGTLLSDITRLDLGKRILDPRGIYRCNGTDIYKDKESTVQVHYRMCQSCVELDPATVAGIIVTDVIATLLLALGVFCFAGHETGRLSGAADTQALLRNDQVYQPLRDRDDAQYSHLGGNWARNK
T1 sequence (P20963 22-164, chain 4 of 4, further chain): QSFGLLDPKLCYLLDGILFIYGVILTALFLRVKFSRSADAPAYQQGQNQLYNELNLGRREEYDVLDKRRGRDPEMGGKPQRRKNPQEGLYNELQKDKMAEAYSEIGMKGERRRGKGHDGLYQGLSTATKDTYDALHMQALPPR

B1: PR000624 (scFv)
scFv: EVQLVESGGGLVQPGGSLKLSCAASGFTFNTYAMNWVRQASGKGLEWVGRIRSKYNNYATYYADSVKDRFTISRDDSKSTLYLQMNSLKTEDTAVYYCVRHGNFGNSYVSWFAYWGQGTLVTVSSGGGQSGQGGSGGGGSDAQMTQSPSSLSASVGDRVTITCRSSTGAVTTSNYANWVQQKPGKAPKGLIGGTNKRAPGVPSRFSGSLSGDDATLTISSLQPEDFATYFCALWYSNLWVFGGGTKVEIKAS[human IgG1 Fc with changes not written out]
notes: also called anti-CD3 scFv-Fc antibody PR000624
  binding result: binds
